# Experimental data: the supplement of paper PMC11417369
# ± gives the standard deviation of the averaged measurements. This is one part of the list.
# System: PfAP2-I AP2 domain 3 (GST-tagged)
# Experiment: gcPBM binding intensity (ln(normalized median fluorescence intensity)); higher = stronger DNA binding
# How it was run: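 Probes on an Agilent 4 × 180k array were primer-extended, double-stranded and 36 bp long, taken from intergenic genomic regions, with negative controls added. GST-tagged P. falciparum DNA-binding domains from E. coli, about 25 μg on average, were applied to the array for 1 h in 1× PBS containing 1% milk, 0.2 mg/ml BSA, 0.5% salmon testes DNA and 0.03% Triton X-100. Binding intensity, obtained after Alexa488 anti-GST antibody detection and a 488 nm scan, is the highest Masliner-normalised natural-log median intensity across replicate spots of either probe orientation.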
row,Sequence,gcPBM binding intensity (ln)
1,TGAATAAATATGCAGCGTACATAATCCTCTTAAAAT [XGTACX_site8462],7.87 ± 0.39
2,GTTAAATGAAAATATGTACACACTTGAAAATTTTTA [CACACA_site2924],7.86 ± 0.37
3,AAAGTATATAGGATACGTACATACATAAATAAATAA [XGTACX_site8216],7.84 ± 0.73
4,GTACAAAATTGACAAGTGCAAAAATTAAAAGCAAGA [GTGCAC_site9838],9.69 ± 0.39
5,GTGTGAGCACATTCGGGAGAGTTTTTTTTTTTTTTT [CACACA_negctrl_site1776],8.7 ± 0.74
6,TATAAAAATAAGCACACACACAAATATAGATTTATT [CACACA_site6558],7.95 ± 0.23
7,ATATATATATAAATATGTACATATATTTATTTCTTT [XGTACX_site3784],8.88 ± 0.028
8,TATATTCAAAATGGTACACACAATATTTAATTGTGC [CACACA_site2631],7.68 ± 0.34
9,ACATTTTCTTATAAATGTACATATATATTATTATAT [XGTACX_site4404],7.72 ± 0.33
10,TGACATATAAAATATTCACACACAAGTTATAGTTCT [CACACA_site9209],7.42 ± 0.5
11,AAAACAAACAAAAAAAAAAAAAAAAATATCAATCTA [TGCATGCA_negctrl_site203],7.01 ± 0.52
12,GACGTGGAAAAAAAAACACACACAAAAAAAAAAAAA [CACACA_site9324],8.19 ± 0.74
13,TGAACATCATTTTTATGTACACACACATATACGTTG [XGTACX_site3864],7.96 ± 0.28
14,ATATATCATGCCAAGGGTACAAATGTGTAGTTGAAA [XGTACX_site2820],7.99 ± 0.73
15,TATATATATATATATACATGCATTTTTGTTTGCTTA [TGCATGCA_site256],9.23 ± 0.27
16,TTTTTTTTTTCTCCTGCATGCAGCATTTATATATTA [TGCATGCA_site390],10.1 ± 0.57
17,GACAACGTTTCAATGTGTACATATTTATAATATATA [XGTACX_site2427],7.87 ± 0.62
18,TATATATATATATGTACACACATCAATCATATTAAC [CACACA_site1946],9.41 ± 0.4
19,ATTGAAAAACCGTTTAGTACATATCATCACGTTTGT [XGTACX_site1295],7.78 ± 0.37

row,Sequence,gcPBM binding intensity (ln)
1,TAAAATAAAATAAGTAGTACATATATAATTATATAT [XGTACX_site6733],7.73 ± 0.37
2,TTTTTTTTTTTTTTTACACACTGCATACAAGAAAAA [CACACA_site5642],8.54 ± 0.66
3,AAAATACGAATATAAACATGCACCATATAGAACAAA [TGCATGCA_site925],9.22 ± 0.099
4,TTTTTACAAAAAAAAAAAAAAAAAATAAAAATAAAT [CACACA_negctrl_site1738],7.41 ± 0.73
5,TACAAATATAGATGCACACACATATACATACCTATA [CACACA_site7094],8.72 ± 0.2
6,AATTTTAAATTTAATTTACACACTTTTCATAGCATT [CACACA_site9264],7.79 ± 0.73
7,TATAAAACACACACACATATATATATATATTTATAT [TGCATGCA_negctrl_site48],7.81 ± 0.47
8,ATTTACAAAAATTTTGTATAAAGGGATTTTAAAATG [TGCATGCA_negctrl_site350],8.02 ± 0.33
9,GAAAAAAAAAAAAAAAGTACATTCTCTATTTCATGT [XGTACX_site3209],7.42 ± 0.35
10,ATAAATTTAAATAGGAGTACACAGCTTTATATTTTG [XGTACX_site4176],7.72 ± 0.56
11,TAATTACCATATGGTACACACATATTTATAGGTATA [CACACA_site7603],7.68 ± 0.44
12,CGCGCACCCAGACACACACACACACCCATATATATA [CACACA_site2203],8.44 ± 0.7
13,ACGTATAATATGTACACACACATATATACCAAAAAA [CACACA_site4661],7.97 ± 0.37
14,GATAAAATAATATATAGTACTTTTTTAAAATAAATA [XGTACX_site522],7.59 ± 0.21
15,ATTACATTTTTGTTTTGTACATATATTTTATAAACA [XGTACX_site494],7.91 ± 0.51
16,CGTAATAATTAATGTTGTACCCACCAAAAAAATTAA [XGTACX_site8592],8.01 ± 0.23
17,TATATTTATATATATACACACATAATAAAAAATATA [CACACA_site844],7.57 ± 0.35
18,TTGTTTTGTAATAAAAAAAAAATAATATAATATAAT [XGTACX_negctrl_site300],7.74 ± 0.61
19,GAAATATTGAAACACACACACAAACATATATATATA [CACACA_site1911],9.31 ± 0.11

row,Sequence,gcPBM binding intensity (ln)
1,TTTATAGTTTTAAACAAAGTAATACAAATGTATATA [CACACA_negctrl_site1716],7.42 ± 0.4
2,TATAAAAAAAATAAAATAAAATAAAATAGAAAAATA [TGCATGCA_negctrl_site109],7.46 ± 0.36
3,AAACGTTTATTTTATTGTACATATGAAAAATGCTTC [XGTACX_site6896],7.81 ± 0.45
4,AACATTATCAAATAAACCATAAATCAATTCAATATG [CACACA_negctrl_site696],7.46 ± 0.57
5,ATATTTTTTTTTTTCACACACATTTAGATTGTATTA [CACACA_site3137],7.96 ± 0.76
6,AAAAAAAAAAAAAATTGTACGGATTCTTTTTTTTTT [XGTACX_site2898],7.96 ± 0.69
7,TTGTATAAAAAACTAAAAAATATAAAATAATAAGTG [CACACA_negctrl_site1704],7.88 ± 0.47
8,TATATACATTTTTATGTGCACATTTTATTTTTAAAT,10.2 ± 0.19
9,TAAATCACAAAATTATGTACTAAGAAGGAGCAACAT [XGTACX_site6742],8.05 ± 0.45
10,TATACCTTAATATACACACATACATATATATATATA [CACACA_site1339],9.12 ± 0.32
11,GGGGAAAAAGCAGGTTGTACAGTGATGTCCATATAA [XGTACX_site7606],8.29 ± 0.52
12,TAACAAAGTAAAAGAACATGCAAACACGCACACAGA [TGCATGCA_site374],8.31 ± 0.69
13,AGTGTATTAAATTTTGAACACACAAAATAAAACATA [CACACA_site8483],8.185 ± 0.078
14,TTTTAATTTAAAAATTAATTTATATATATATATATA [TGCATGCA_negctrl_site447],9.44 ± 0.3
15,TTTAGACTTTTCTATAGTACATATTATATATATATA [XGTACX_site6532],9.05 ± 0.13
16,TTATTGCGCACAATTTGTACATATATATATATAGAA [XGTACX_site7573],9.79 ± 0.35
17,GAAAAATTAAAATGTGGTACAATAAAATTTTATTCA [XGTACX_site5030],7.69 ± 0.4
18,ATATTTATACTATACACACCCAATTTAAAAAAAAAT [CACACA_site1163],8.04 ± 0.48
